# This is one part of the list.
# Test system: T1, C. trachomatis L2/434/Bu expressing GFP (CTL2-GFP)
# T1 construct: L2/434/Bu GFP intracellular growth in HeLa cells
# Set-up: species or system HeLa; C. trachomatis total inclusion area by high-content imaging, normalised to DMSO
# Details: total inclusion area; 28.5 h, 10 µM; inhibitor
# In short: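 After bulk GFP and resorufin fluorescence reads, cells were fixed, stained with Hoechst and imaged by high-content microscopy. Inclusion area and number (GFP) stood in for chlamydial growth, nuclei count (Hoechst) for host cell viability. MICs were derived as for the bulk readout.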
row,Compound,% of control remaining
1,COc1cccc(C2C(C(=O)c3ccc(Br)cc3)=C(O)C(=O)N2CCCN2CCOCC2)c1 (centres unmarked) [CBK264862],76.5325
2,COc1ccc(-c2cc(C(=O)N[C@H]3CCN(Cc4ccccc4)C3)cnc2-c2ccccc2)cn1 [CBK037605],62.1566
3,CC(=O)c1ccc(-c2cc(C(=O)Nc3ccc4c(c3)OCCO4)cnc2-c2ccc(Cl)cc2)s1 [CBK036627],79.3084
4,COCCn1c(=O)n(Cc2ccc(F)cc2)c2cccnc21 [CBK283886],79.3254
5,COc1ccc(C(=O)N2CCN(Cc3ccccc3)CC2)c(OC)n1 [CBK200169],106.843
6,COc1cccc(/C=N/NC(=O)C(=O)NCc2ccccn2)c1 [CBK262268],88.7444
7,COc1cccc(NC(=O)CC(CN2CCN(CCC#N)CC2)C(=O)O)c1 (centres unmarked) [CBK286801],94.6043
8,O=C(c1nccs1)C1CCN(C(=O)C2(c3ccccc3)CC2)CC1 [CBK284206],58.499
9,CC1=CC(C)C(C(=O)O)C(C(=O)NCc2cccnc2)C1 (centres unmarked) [CBK293964],95.1339
10,Fc1ccc(C2C=C(c3ccc(F)cc3F)Nc3ncnn32)cc1 (centres unmarked) [CBK288095],87.8
11,Cc1ccc(S(=O)(=O)NCc2ccc(-c3nn(C)cc3-c3ccncc3C)cc2)cc1 [CBK285632],93.023
12,O=C(O)CCc1ccc(NS(=O)(=O)c2ccc(N3CCCC3=O)cc2)cc1 [CBK299788],112.711
13,Cc1cc(Cl)ccc1Nc1nnc(C)c(=O)[nH]1 [CBK287922],91.6149
14,CC(C)CN1C[C@H]2N(C)C(=O)c3ccccc3C(=O)[C@@]2(C)C1 [CBK283477],88.9617
15,CCN(CC)CCN1CCN(c2cc(-c3cccc4ccccc34)ncn2)CC1 [CBK091196],139.526
16,CN(C)CC(C)(C)CNC=C1C(=O)CC(C)(C)CC1=O [CBK262046],108.352
17,OC(CSc1ccccc1)CN1CCC(Nc2nccc(C(F)(F)F)n2)CC1 (centres unmarked) [CBK074648],89.2362
18,CC(=O)OCc1nc2cc(F)c(F)cc2[nH]1 [CBK110117],103.66
19,O=C(c1cc(F)c(F)cc1F)N1CCC2(CCCN(C(=O)c3cccc4[nH]ccc34)C2)C1 (centres unmarked) [CBK131544],88.2255
20,CCOC(=O)c1cc2c3ccccc3n(CC)c2nc1N [CBK100822],101.514
21,CCCCN(C)c1c(CC)nc2ccc(C(=O)NCCN3CCCC3)cn12 [CBK145440],94.503
22,CC(=O)N1C[C@H]2CCCN(S(=O)(=O)c3cccs3)[C@H]2C1 [CBK285275],91.6777
23,CC(NC(=O)CCc1cnn(C)c1)c1nc(-c2ccncc2)cs1 (centres unmarked) [CBK305496],45.3368
24,Cc1cccn2c(CN3CCCC(O)C3)c(C(=O)N3CCCCC3)nc12 (centres unmarked) [CBK307342],65.319
25,Cc1ncccc1OC1(C(=O)NCc2n[nH]c3c2CCC3)CCNCC1 [CBK307057],62.068
26,O=C(Cc1ccsc1)N1CCC[C@@H]1Cn1c(=O)oc2ccccc21 [CBK284530],127.636
27,O=C(c1cncnc1)N1Cc2ccccc2C1 [CBK200223],66.9131

row,Compound,% of control remaining
1,CN1CCN(C(=O)c2cnn(-c3ccccc3)c2NC(=O)c2ccc(F)cc2)CC1 [CBK265198],97.1388
2,Cc1c(C(=O)N2CCNCC2C)nnn1-c1ccc2ncccc2c1 (centres unmarked) [CBK304473],52.3081
3,O=C(C1CCN(S(=O)(=O)c2ccc(F)cc2)C1)N1CCN(C2CCCC2)CC1 (centres unmarked) [CBK285703],93.4804
4,O=C(O)C1Nc2ccc(Oc3ccccc3)cc2C2C=CCC12 (centres unmarked) [CBK286542],79.8854
5,CNC(=O)C1(Cc2ccccc2-c2ccccc2)CCN(C(=O)c2cccc(OC)c2)CC1 [CBK285922],120.96
6,COCCCn1c(SCc2csc(-c3ccc(C)cc3)n2)n[nH]c1=O [CBK295657],42.2015
7,O=c1cc(CN2CCC(Oc3nccnc3OCc3ccc(Cl)c(Cl)c3)CC2)[nH]c(=O)[nH]1 [CBK153784],84.1189
8,CCNC(=O)COc1ccc(C=Cc2nc(-c3ccccc3)c(C(=O)O)s2)cc1OCC [CBK296644],67.4258
9,CC(Sc1nc2ccc(Cl)cc2o1)C(=O)N1CCOCC1 (centres unmarked) [CBK305164],52.166
10,CCCn1c(C)nnc1CN(CC1CCCO1)C1CCCC1 (centres unmarked) [CBK304465],73.7208
11,COCc1cc(C)nc(SCC(=O)O)c1C#N [CBK270463],96.811
12,Cc1nn(C)cc1CN(Cc1ccccc1)CC1CCCO1 (centres unmarked) [CBK283264],114.178
13,O=C(Cc1ccsc1)N1CCC2(CCCNC2)C1 (centres unmarked) [CBK137153C],97.6344
14,CCn1c(CNC(=O)c2cc(C(C)C)on2)nc2ccccc21 [CBK281393],91.3668
15,COc1ccc(Cn2nnnc2C(CC(C)C)N2CCC(C(N)=O)CC2)cc1 (centres unmarked) [CBK084783],100.914
16,CCN(Cc1ncc[nH]1)[C@H]1CCO[C@@H](c2ccccc2-c2ccc(OC)cc2)C1 [CBK285842],113.25
17,O=C(O)c1ccc(N2C(=O)CC(c3ccccc3)CC2=O)cc1 [CBK291169],119.218
18,CC(NC(=O)c1cnc(-c2ccc(Cl)cc2)c(-c2ccc(O)cc2)c1)c1ccc(F)cc1 (centres unmarked) [CBK036751],112.953
19,CC(NC(=O)C1CCN(Cc2cccnc2)CC1)c1ccc(F)cc1 (centres unmarked) [CBK148032],97.5874
20,O=S(=O)(/C=C/c1ccccc1)Nc1cccc2[nH]ccc12 [CBK155772],101.869
21,Cc1ccc(S(=O)(=O)N2CCN(C(=O)c3ccco3)CC2)cc1 [CBK068166],101.551
22,COc1ccc(-c2cc(CC3(NCc4ccccc4O)COC3)no2)cc1 [CBK289697],109.775
23,COc1ccc(-c2nc3cc(NC(=O)c4ccccc4Br)ccc3o2)cc1 [CBK264953],106.292
24,Cc1cccc(C2(O)CCN(CC(O)c3ccc(F)cc3)CC2)c1 (centres unmarked) [CBK282504],97.7291
25,O=C(NCc1ccc(Cl)cc1)N(Cc1cccnc1)Cc1ccc2c(c1)OCO2 [CBK159449],92.2095
26,CCN(CC)C(=O)c1sc2ncccc2c1NS(=O)(=O)c1c(C)noc1C [CBK050617],72.2322
27,Cn1ccc(C(=O)N2CCCC(c3cc4ncccc4[nH]3)C2)n1 (centres unmarked) [CBK283412],107.927

row,Compound,% of control remaining
1,O=C(Cn1cnc2c(cnn2-c2ccc(F)cc2)c1=O)NCc1ccccc1 [CBK287538],116.304
2,Cc1nc(C2CCN(C(=O)CCc3ccno3)CC2)c2sccn12 [CBK282239],121.03
3,CCN(Cc1cn2ccc(C)cc2n1)CC1CCOCC1 [CBK306680],53.7135
4,CC(=O)Nc1ccc(C(=O)N2CCCC(c3cccc(Cc4ccccc4Cl)n3)C2)cc1 (centres unmarked) [CBK286126],92.59
5,[N-]=[N+]=NC1C2OCC(O2)C(OCc2ccccc2)C1O (centres unmarked) [CBK261000],105.848
6,CC(=O)Nc1ccc(S(=O)(=O)N2CCN(C(=O)c3ccco3)CC2)cc1 [CBK068319],97.0172
7,COC(=O)c1c(NC(=O)Cn2ccc([N+](=O)[O-])n2)sc2c1CCCC2 [CBK268960],122.709
8,CCNc1cccnc1N1CCN(CCc2cc(C)c(O)c(C)c2)CC1 [CBK024361C],67.8693
9,c1ccc(CCN2CCN(c3nccnc3OCC3COc4ccccc4O3)CC2)cc1 (centres unmarked) [CBK082794T],73.5226
10,O=c1[nH]nc2cc(SCc3ccc(Cl)cc3)ncn12 [CBK300540],132.321
11,CN1CCN(C(c2cccs2)c2nnnn2C(C)(C)C)CC1 (centres unmarked) [CBK141702],79.7378
12,COc1ccc(N(C(C)C(=O)Nc2ccc(Cl)c(Cl)c2)S(C)(=O)=O)cc1 (centres unmarked) [CBK266872],106.258
13,OCC1(CNc2ncc(F)c(N3CCCC3)n2)CCOCC1 [CBK306647],29.6376
14,Cc1cccc(NC(=S)N/N=C/c2sccc2C)c1 [CBK022228],60.3135
15,Cc1cc(C)cc(NC(=O)Cc2cc(=O)[nH]c(SCc3ccccc3)n2)c1 [CBK287842],98.6688
16,Cc1nc(CC(=O)N2CCOC(c3ccc(F)cc3)C2)cs1 (centres unmarked) [CBK305759],78.1346
17,O=S(=O)(NCCc1ccccc1)c1cccc2nsnc12 [CBK261128],100.921
18,CC[C@H](C)[C@H](NC(N)=O)C(=O)Nc1ccc(F)c([N+](=O)[O-])c1 [CBK297489],86.7823
19,CCC(=O)N1CCC(c2nc(Cc3cccs3)no2)C1 (centres unmarked) [CBK282968],87.1261
20,Cc1c(C(=O)N2CCCC(c3cnccn3)C2)oc2c(F)cccc12 (centres unmarked) [CBK285302],80.8281
21,Cc1cc(CCCC(=O)NCc2ccc(-c3ccc(C(N)=O)c(C)n3)cc2)ccc1F [CBK286016],114.583
22,CC(CN1CCOCC1)NS(=O)(=O)c1cccc(C(=O)N2CCCC2)c1 (centres unmarked) [CBK307053],36.7748
23,CCn1c(SCc2cc(Cl)c3c(c2)OCCO3)nnc1-c1ccc(OC)cc1 [CBK297086],99.7815
24,O=C(O)c1ccc(/C=N/NC(=O)c2ccco2)cc1 [CBK263569],93.459
25,CCOC(=O)C1CCCN(CCC(=O)Nc2cc(C)cc(C)c2)C1 (centres unmarked) [CBK264284],96.0821
26,Cc1noc(C)c1S(=O)(=O)NCC(=O)N1CCOCC1 [CBK034476],86.8488

# Source: paper PMC12040169 (PLOS Biology, 2025)
